In article PMC7014971 (Nature, 2019):

Target: the molecule itself
Test: cryo-EM structure

B1: full-length human BRAF S365A (natural protein)
chain: not shown
  stoichiometry N: 2
